Experimental findings from the RNAGym collection of RNA variant scans (doi:10.1093/nar/gkz1192) are described below.

The source gives no read counts; variants with many changes may rest on few reads.

B1: CPEB3 Ribozyme (parent)
chain: UAACAGGGGGCCACAGCAGAAGCGUUCACGUCGCAGCCCCUGUCAGAUUCUGGUGAAUCUGCGAAUUCUGCUGUAUAUCUC

This series covers variants of B1. The series can be described thus: self-cleavage, relative activity (ratio to wild type); higher = more cleavage; in vitro, sequencing. The procedure, abridged:
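Libraries of CPEB3 self-cleaving ribozyme mutants came from rounds of error-prone PCR and carried barcodes, which DNA sequencing matched to variants. In vitro transcription used T7 RNA polymerase at 37°C for 5 hours, with a further 15 min in DNase I before EDTA stopped the reaction; the ribozymes cleaved during both steps. The RNA was reverse transcribed with template switching and sequenced on Illumina. Relative activity is the cleaved/total read fraction of a variant divided by that of the unmutated ribozyme, averaged over three batches with at least 5 reads.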
In the case of UAACAGGGGGCCACAGCAGAAGCGUUCACGUCGCAGCCCCUGACAGAUCCUGGUGAAUCUGCGAAUUCCGCUGUAUAUCUC [U43A U49C U69C], the self-cleavage stood at 0.19.

Regarding UAACAGGGGGCCACAGCAGAAGCGUUCACGUCGCAGCCCCUGCCAGGUUCUGGUGAAACUGCGAAUUCUGCUGUAUAUCUC [U43C A47G U58A], the self-cleavage stood at 0.15.

On to UAACAGGGGGCCACAGCAGAAGCGUUCACGUCGCAGCCCCUACCAGAUUCUGGUGAAUCCGCGAAUUCUGCUGUAUAUCUC [G42A U43C U60C], for which the self-cleavage was 0.09.

In the case of UAACAGGGGGCCACAGCAGAAGCGUUCACGUCGCAGCCCCUGCCGGAUUCUGGUGAAUCUGCGAAUUCAGCUGUAUAUCUC [U43C A45G U69A], the self-cleavage came to 0.27.

Take UAACAGGGGGCCACAGCAGAAGCGUUCACGUCGCAGCCCCUGACAGAUUCUGGUGAAUCCCCGAAUUCUGCGGUAUAUCUC [U43A U60C G61C U72G]: the self-cleavage came out at 0.25.

For UAACAGGGGGCCACAGCAGAAGCGUUCACGUCGCAGCCCCUACCAGAUUCUGGUGAAUCUGCGAAUCCUGCUGUAUAUCUC [G42A U43C U67C], the self-cleavage was determined as 0.1.

As for UAACAGGGGGCCACAGCAGAAGCGUUCACGUCGCAGCCCCUACCAGAUUCUGGUGAAUCUGCGAAUACUGCUGUAUAUCUC [G42A U43C U67A], the self-cleavage is 0.24.

For the variant UAACAGGGGGCCACAGCAGAAGCGUUCACGUCGCAGCCCCUGACAGAUUCUGGUGAAUCCGCGAACUCUGCUGUAUACGUC [U43A U60C U66C U78C C79G], the self-cleavage was 0.25.

Take UAACAGGGGGCCACAGCAGAAGCGUUCACGUCGCAGCCCCUGACAGAUUCUGGUGAAUCUGCGGAAUCUGCAGUAUAUCUC [U43A A64G U66A U72A]: the self-cleavage stood at 0.16.

Consider UAACAGGGGGCCACAGCAGAAGCGUUCACGUCGCAGCCCCUACCUGAUUCUGGUGAAUCUGCGAAUUCUGCUGUAUAUCUC [G42A U43C A45U], for which the self-cleavage came to 0.2.

As for UAACAGGGGGCCACAGCAGAAGCGUUCACGUCGCAGCCCCUGACAGAAUAUGGUGAAUCUGCGAAUUCUGCUGUAUAUCUC [U43A U48A C50A], the self-cleavage is 0.37.

As for UAACAGGGGGCCACAGCAGAAGCGUUCACGUCGCAGCCCCUGACUGAUUCUGGUGAAUCUGCGAAUUCUGCCGUAUAUCUC [U43A A45U U72C], the self-cleavage is 0.63.

For UAACAGGGGGCCACAGCAGAAGCGUUCACGUCGCAGCCCCUUUCAGAUUCUGGUGAAUCCGCGAAUUCUGCCGUAUACCUC [G42U U60C U72C U78C], the self-cleavage stood at 0.21.

Consider UAACAGGGGGCCACAGCAGAAGCGUUCACGUCGCAGCCCCUCACGGAUUCUGGUGAAUCUGCGAAUUCUGCCGUAUAUCUC [G42C U43A A45G U72C], for which the self-cleavage turned out to be 0.21.

Consider UAACAGGGGGCCACAGCAGAAGCGUUCACGUCGCAGCCCCUGCCAGUUUCUGCUGAAUCUGCGAAUUCUGUUGUAUAUCCC [U43C A47U G53C C71U U80C], for which the self-cleavage was determined as 0.14.

Take UAACAGGGGGCCACAGCAGAAGCGUUCACGUCGCAGCCCCUGACAGAUUCUGGUGAAUCCGCGAAUUCCGCUGUAUAUCCC [U43A U60C U69C U80C]: the self-cleavage was found to be 0.35.

As for UAACAGGGGGCCACAGCAGAAGCGUUCACGUCGCAGCCCCUGACGGAUUCUGGUGAUUCCGCGAAUUCUGCUGUAUAUCAC [U43A A45G A57U U60C U80A], the self-cleavage was 1.18.

For UAACAGGGGGCCACAGCAGAAGCGUUCACGUCGCAGCCCCUAUCAGAUUCGGGUGAAUCUGCGAAUCCUGCUGUAUAUCUC [G42A U51G U67C], the self-cleavage was found to be 0.19.

For the variant UAACAGGGGGCCACAGCAGAAGCGUUCACGUCGCAGCCCCUGACAGAUUCUGGUGAAUCCGCGAAUUCUGCUGUAUGUCUC [U43A U60C A77G], the self-cleavage worked out at 0.72.

For the variant UAACAGGGGGCCACAGCAGAAGCGUUCACGUCGCAGCCCCUGACAGAUUCCGGUGGAUCUGCGAAUUCUGCCGCAUAUCUC [U43A U51C A56G U72C U74C], the self-cleavage amounted to 0.9.

Regarding UAACAGGGGGCCACAGCAGAAGCGUUCACGUCGCAGCCCCUAUCAGAUUCAGCUGAAUCUGCGAAUUCUGCUGUAUAUCUC [G42A U51A G53C], the self-cleavage was 0.17.

As for UAACAGGGGGCCACAGCAGAAGCGUUCACGUCGCAGCCCCUGACAGAUUCAGGUGAAUCUGCGAUUUCUGCAGUAUAUCUC [U43A U51A A65U U72A], the self-cleavage was 0.49.

In the case of UAACAGGGGGCCACAGCAGAAGCGUUCACGUCGCAGCCCCUGACAGGUUCUGGUGUAUCUGCGAAUCCUACUGUAUACCUC [U43A A47G A56U U67C G70A U78C], the self-cleavage is 0.25.

For the variant UAACAGGGGGCCACAGCAGAAGCGUUCACGUCGCAGCCCCUAUCAGAUUCUAGUGCAUCUGCGAAUUCUGCUGUAUAUCUC [G42A G52A A56C], the self-cleavage came to 0.16.

Consider UAACAGGGGGCCACAGCAGAAGCGUUCACGUCGCAGCCCCUAUCAGAUUCUGGCGAAUCUGCGAAUUUCGCUGUAUAUCUC [G42A U54C C68U U69C], for which the self-cleavage is 0.17.

With UAACAGGGGGCCACAGCAGAAGCGUUCACGUCGCAGCCCCUGACGGAUUCUGGUGAAUCUGCGAAUUCUGCAGUAUAUCUC [U43A A45G U72A], the self-cleavage is 0.28.

Take UAACAGGGGGCCACAGCAGAAGCGUUCACGUCGCAGCCCCUGACAGACUCUGGGGAAUCUGCGAAUUCUGCUGUAUAUCUC [U43A U48C U54G]: the self-cleavage was 0.38.

For the variant UAACAGGGGGCCACAGCAGAAGCGUUCACGUCGCAGCCCCUGCCUGAUUCUGGUGAAUCCGCGAAUCCUGCCGUAUAUCUC [U43C A45U U60C U67C U72C], the self-cleavage stood at 0.13.

As to UAACAGGGGGCCACAGCAGAAGCGUUCACGUCGCAGCCCCUGCCAGAUUCUGGUGGUUCUGCGAAUUGUGCUGUAGAUCUC [U43C A56G A57U C68G U76G], the self-cleavage was 0.07.

On to UAACAGGGGGCCACAGCAGAAGCGUUCACGUCGCAGCCCCUGACAGACUCUGGUGAAUCUGCGACUUCUGCCGUAUAUCUC [U43A U48C A65C U72C], for which the self-cleavage was determined as 0.08.

As for UAACAGGGGGCCACAGCAGAAGCGUUCACGUCGCAGCCCCUGCCAGAUUCUGGUGGAUCUGCGAGUUCCGCUGUAUAUCUC [U43C A56G A65G U69C], the self-cleavage came to 0.2.

With UAACAGGGGGCCACAGCAGAAGCGUUCACGUCGCAGCCCCUGACGUAUACUGGUGAAUCUGCGAAUUCUGCUGUAUAUCUC [U43A A45G G46U U49A], the self-cleavage worked out at 0.09.

Regarding UAACAGGGGGCCACAGCAGAAGCGUUCACGUCGCAGCCCCUGACAGAUUCUGGCGAAUCCGCGAACUCUGCUGUAUAUCUC [U43A U54C U60C U66C], the self-cleavage is 0.23.

As for UAACAGGGGGCCACAGCAGAAGCGUUCACGUCGCAGCCCCUGACAGAUUCCGGUGAAUCUGCGAUUUCUGCUGUAUAUCCC [U43A U51C A65U U80C], the self-cleavage was 0.62.
